# PubChem BioAssay AID1508642 (National Center for Advancing Translational Sciences (NCATS), 2021)
# Out of some 43,000 compounds screened, about 200 (0.47%) were called active. Roughly 12% stayed inconclusive and do not appear here. Calls come from the whole dose curve; as a rule, active = well fitted cell-killing curve with a large enough effect; inconclusive = small, poorly fitted or top-dose-only effect, or effect the other way; inactive = flat fitted curve, though single readings scatter. Some of the results follow.
# Assay: Cell viability qHTS assay in S16 Pmp22-F2sN cells; note: nearly all actives have a fitted effect of over 65% in size
# Conditions: S16 Pmp22-F2sN Schwann cells viability, CellTiter-Glo, 24 h; series mostly up to 57.5 µM; activity change, negative = cytotoxicity: at the top concentration
# In short: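 Used to flag compounds lowering reporter output through toxicity, this quantitative HTS measures ATP-based CellTiter-Glo luminescence in S16 Pmp22-F2sN Schwann cells after 24 h compound exposure at 37C.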
# % is set by controls: 0 for no effect and ±100 for the full control effect.
row,SMILES,"activity change, negative = cytotoxicity"
1,COc1ccc(NC(=O)c2ccc(NC(=O)N3CCSc4ncccc43)cc2)cc1,inactive: -26.9%
2,COc1ccccc1NC(=O)C1=C(C)Nc2nc(SCc3ccccc3)nn2C1c1cccc(O)c1 (stereo unspecified),inactive: -3.29%
3,CCCCn1c(SCc2ccccc2C)nc2ccsc2c1=O,inactive: -8.39%
4,COc1ccc(CNC(=O)C(=O)NCC(c2ccco2)S(=O)(=O)c2cccs2)cc1 (stereo unspecified),inactive: -18.7%
5,Cc1ccc(S(=O)(=O)c2nc(-c3cccs3)oc2SCc2ccc(F)cc2)cc1,inactive: -7.28%
6,CC(C)c1ccccc1NC(=O)C(Cc1c[nH]c2ccccc12)NC(=O)OC(C)(C)C (stereo unspecified),inactive: -13.5%
7,Cc1ccc(NS(=O)(=O)c2ccc3c(c2)CCN3C(=O)C2CC2)c(C)c1,inactive: -4.21%
8,Cc1ccc(NC(=O)c2ccc3c(O)c(S(=O)(=O)c4ccc(Cl)cc4)c(=O)[nH]c3c2)cc1,inactive: -0.81%
9,CCOC(=O)C1CCCN(C(=O)Cn2ncc3c(C)n(Cc4ccc(Cl)cc4)c(C)c3c2=O)C1 (stereo unspecified),inactive: -15.7%
10,C=C(C)Cn1c(SCC(=O)c2ccc(Br)cc2)nc2sc3c(c2c1=O)CCCC3,inactive: 0.302%
11,CC1=C(C#N)C(NC(=O)c2ccccc2)(C(F)(F)F)C(=O)N1 (stereo unspecified),inactive: -0.0536%
12,CCC(=O)N1CCc2cc(CNC(=O)Nc3cc(OC)c(OC)c(OC)c3)ccc21,inactive: 3.1%
13,CCN(CC)C(=O)C1=C(C)Nc2nc3ccccc3n2C1c1ccccc1F (stereo unspecified),inactive: -0.57%
14,CCOC(=O)c1cc2c(=O)n3ccccc3nc2n(CCCOC)c1=NC(=O)c1c(-c2c(F)cccc2Cl)noc1C,inactive: -8.83%
15,COc1ccccc1CNC(=O)Cc1c(C)c2cc3c(C)coc3c(C)c2oc1=O,inactive: 1.47%
16,CCOc1ccc(CCNC(=O)C2Cc3ccccc3N2C(=O)CC)cc1 (stereo unspecified),inactive: 9.92%
17,Cc1ccccc1Cn1c(=O)n(Cc2ccco2)c(=O)c2sc3ccccc3c21,inactive: 21.8%
18,COc1ccc(CNC(=O)CC(C)CC2=NS(=O)(=O)c3ccccc3N2)cc1 (stereo unspecified),inactive: -1.62%
19,CCOc1ccc(S(=O)(=O)Nc2ccc3c(c2)CCCN3C(=O)c2cccs2)cc1,inactive: 0.183%
20,O=C(Cc1ccc(NC(=O)N2CCCCc3ccccc32)cc1)NCc1cccc(Br)c1,inactive: 4.42%
21,COc1ccc(Cl)cc1NC(=O)Cn1c(=O)n(-c2ccc(C)cc2)c(=O)c2ccc(C(=O)NCc3ccccc3Cl)cc21,inactive: 12.1%

row,SMILES,"activity change, negative = cytotoxicity"
1,COc1cc(NC(=O)CCNC(=O)Cn2ccc3ccccc3c2=O)cc(OC)c1OC,inactive: 3.32%
2,COc1ccc(CCNC(=O)c2cc(Nc3ccccc3)nc3ccccc23)cc1OC,inactive: -2.79%
3,O=C1CCc2cc(S(=O)(=O)NCc3ccccc3)cc3c2N1CC3,inactive: 7.78%
4,CCn1c(C(=O)Nc2ccccc2C(=O)OC)cc2sc(Cl)cc21,inactive: -0.0271%
5,COC(=O)c1c(NC(=O)CCCOc2ccc(C)cc2)sc2c1CCCC2,inactive: 1.05%
6,Cc1ccccc1Cn1c(SCc2ccc(C(=O)N3CCCCC3)cc2)nc2ccncc21,inactive: -0.953%
7,O=S(=O)(NCCc1csc(-c2cccc(F)c2)n1)c1cc(F)ccc1F,inactive: -27.1%
8,CCCOc1ccc(OC(=O)c2ccc(-c3ccc(CCC)cn3)cc2)cc1,inactive: -27.7%
9,O=C(CCCCn1c(=O)c2ccccc2n(Cc2ccc(F)cc2Cl)c1=O)NCCc1ccc(Cl)cc1,inactive: 14.1%
10,COC(=O)c1ccccc1NC(=O)CCCn1c(C)c2cnn(-c3ccccc3)c(=O)c2c1C,inactive: 9.69%
11,Cc1nc2c(c(C)nn2-c2ccccc2)c(C)c1CCC(=O)Nc1ccccc1,inactive: 3.39%
12,O=C(Nc1ccc(S(=O)(=O)N(Cc2ccccc2)c2ccccc2)cc1)c1ccccc1F,inactive: 0.424%
13,Cc1ccc(NC(=O)Cn2c(=O)n(Cc3ccc(F)cc3)c(=O)c3cccnc32)cc1C,inactive: -0.947%
14,COc1ccc(-c2nn3c(-c4ccccc4)nnc3c3ccccc23)cc1,inactive: -0.355%
15,CC(=O)c1ccc(NC(=O)C2CCN(S(=O)(=O)c3c(C)noc3/C=C/c3ccc(C)cc3)CC2)cc1,inactive: -1.21%
16,COc1ccc(CNC(=O)CN2C(=O)COc3ccccc32)c(OC)c1,inactive: 29.4%
17,Cc1ccc2nc(NC(=O)CSc3cc(C)[nH]c(=O)n3)sc2c1,inactive: -9.04%
18,Oc1ccccc1-c1nc2cnccn2c1Nc1ccc(Cl)cc1,inactive: -18%
19,CCOc1ccc(CNC(=O)CCCn2c(=O)c3cccn3c3cccnc32)cc1,inactive: -2.42%
20,Cc1cc(C(=O)NCCc2ccc(Cl)cc2)c2c(C)nn(-c3ccccc3)c2n1,inactive: 14.4%
21,COc1cc(CNC(=O)c2ccc(NC(=O)N3CCCCc4ccccc43)cc2)cc(OC)c1OC,inactive: -7.64%

row,SMILES,"activity change, negative = cytotoxicity"
1,Cc1ccc2oc(=O)c3cnn(CC(=O)N4CCN(c5cccc(Cl)c5)CC4)c3c2c1,inactive: 19.7%
2,CCOc1ccc(OCC)c(NC(=O)CN(C)S(=O)(=O)c2ccc3[nH]c(=O)oc3c2)c1,inactive: 4.2%
3,CC(=O)c1cccc(NC(=O)CCn2nc(C)c(S(=O)(=O)N3CCCCC3)c2C)c1,inactive: 2.82%
4,O=C(NCCc1ccc(Cl)cc1)c1cnc2sc(N3CCCC3)nn2c1=O,inactive: -1.76%
5,CCc1ccccc1NC(=O)C1CCCN(S(=O)(=O)c2ccc3[nH]c(=O)ccc3c2)C1 (stereo unspecified),inactive: -4.8%
6,Cc1ccc(OCC(=O)NCC(=O)OCc2cc(=O)n3nc(CC(C)C)sc3n2)cc1,inactive: 3.14%
7,COc1ccc(N2CCN(C(=O)CSc3nc(-c4ccccc4)no3)CC2)cc1,inactive: 12.2%
8,COc1ccc(OC)c(CCNC(=O)CCCn2c(=O)c3cccn3c3cccnc32)c1,inactive: 27.8%
9,O=C(NCc1ccccc1)c1ccc(CS(=O)(=O)c2c(Cl)cccc2Cl)o1,inactive: 21.4%
10,COc1ccc(-c2n[nH]c3c2C(c2ccccn2)N(C)C3=O)cc1 (stereo unspecified),inactive: 7.03%
11,COc1ccc(-n2nc3c(N4CCC(C(=O)NC5CCCCC5)CC4)nnc(C)c3c2C)cc1,inactive: 3.68%
12,O=c1c2oc3ccccc3c2n(Cc2ccccc2F)c(=O)n1Cc1ccc2c(c1)OCO2,inactive: 22.7%
13,CC1=C(c2ccc(C)c(C)c2)S(=O)(=O)N=C1N1CCC(C(=O)NCc2ccc(N(C)C)cc2)CC1,inactive: -11.3%
14,COc1ccccc1NC(=O)N1CCN(c2nnc(C)c3c(C)n(-c4ccccc4)nc23)CC1,inactive: -15.5%
15,Nc1c(-c2nc(-c3ccccc3Cl)no2)nnn1-c1ccccc1C(F)(F)F,inactive: 7.9%
16,Cc1ccc(-c2nnc(SCC(=O)NCc3ccccc3)o2)cc1,inactive: 16.2%
17,CCN(CC)CCN(C(=O)c1ccco1)c1nc2ccc(F)cc2s1,inactive: -5.03%
18,CCCC(=O)N1c2ccccc2-c2nnc(SC)nc2OC1c1sccc1C (stereo unspecified),inactive: -24.5%
19,CCc1ccc(S(=O)(=O)Nc2cc3c(cc2C)n(C)c(=O)c(=O)n3C)cc1,inactive: 20.2%
